# Results taken from the supplement of paper PMC8728848.
# Some of the results follow.
# B1: FBG5 (Homo sapiens), Q8NI29 (protein)
# chain: MGASVSRGRAARVPAPEPEPEEALDLSQLPPELLLVVLSHVPPRTLLGRCRQVCRGWRALVDGQALWLLILARDHGATGRALLHLARSCQSPARNARPCPLGRFCARRPIGRNLIRNPCGQEGLRKWMVQHGGDGWVVEENRTTVPGAPSQTCFVTSFSWCCKKQVLDLEEEGLWPELLDSGRIEICVSDWWGARHDSGCMYRLLVQLLDANQTVLDKFSAVPDPIPQWNNNACLHVTHVFSNIKMGVRFVSFEHRGQDTQFWAGHYGARVTNSSVIVRVRLS
# Tests used:
# Assay in all cases: glycan array binding signal (z-score within array); higher = stronger binding
# Settings in all cases: glycan notation: IUPAC condensed, linker removed
# [1] = target: Neu5Ac(a2-3)Gal(b1-4)GlcNAc6S
# Method in brief: (§1)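 Glycan array data were curated from 3228 arrays in the Consortium for Functional Glycomics database and kept only where the protein sequence was available. Glycan names were converted to IUPAC-condensed notation, and columns mapping to the same glycan were averaged. The binding signal is a within-array Z-score, averaged across arrays of the same protein sequence at different concentrations or buffers and across linkers. Negative Z-scores can be read as non-binding.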
# [2] = target: Neu5Ac(a2-3)Gal(b1-4)[Fuc(a1-3)]GlcNAc
# Method in brief: as §1
# [3] = target: Neu5Ac(a2-3)Gal(b1-4)[Fuc(a1-3)]GlcNAc(b1-3)Gal
# Method in brief: as §1
# [4] = target: Neu5Ac(a2-3)Gal(b1-4)[Fuc(a1-3)]GlcNAc(b1-3)Gal(b1-4)GlcNAc
# Method in brief: as §1
# [5] = target: Neu5Ac(a2-3)Gal(b1-4)[Fuc(a1-3)]GlcNAc(b1-3)Gal(b1-4)[Fuc(a1-3)]GlcNAc(b1-3)Gal(b1-4)[Fuc(a1-3)]GlcNAc
# Method in brief: as §1
# [6] = target: Neu5Ac(a2-3)Gal(b1-4)[Fuc(a1-3)]GlcNAc6S
# Method in brief: as §1
# [7] = target: Neu5Ac(a2-3)Gal6S(b1-4)GlcNAc
# Method in brief: as §1
# [8] = target: Neu5Ac(a2-3)Gal6S(b1-4)[Fuc(a1-3)]GlcNAc
# Method in brief: as §1
# Neu5Ac(a2-3)GalNAc = target: Neu5Ac(a2-3)GalNAc
# Method in brief: as §1
# [9] = target: Neu5Ac(a2-3)GalNAc(b1-4)GlcNAc
# Method in brief: as §1
# [10] = target: Neu5Ac(a2-3)[GalNAc(b1-4)]Gal(b1-4)Glc
# Method in brief: as §1
# [11] = target: Neu5Ac(a2-3)[GalNAc(b1-4)]Gal(b1-4)GlcNAc
# Method in brief: as §1
# [12] = target: Neu5Ac(a2-3)[Neu5Ac(a2-6)]GalNAc
# Method in brief: as §1
# [13] = target: Neu5Ac(a2-6)Gal(b1-4)GlcNAc
# Method in brief: as §1
# [14] = target: Neu5Ac(a2-6)Gal(b1-4)GlcNAc(b1-2)Man(a1-3)[Neu5Ac(a2-6)Gal(b1-4)GlcNAc(b1-2)Man(a1-6)]Man(b1-4)GlcNAc(b1-4)GlcNAc
# Method in brief: as §1
# [15] = target: Neu5Ac(a2-6)Gal(b1-4)GlcNAc(b1-3)Gal(b1-4)GlcNAc
# Method in brief: as §1
# [16] = target: Neu5Ac(a2-6)Gal(b1-4)GlcNAc(b1-3)Gal(b1-4)[Fuc(a1-3)]GlcNAc(b1-3)Gal(b1-4)[Fuc(a1-3)]GlcNAc
# Method in brief: as §1
# [17] = target: Neu5Ac(a2-6)Gal(b1-4)GlcNAc6S
# Method in brief: as §1
# Neu5Ac(a2-6)GalNAc = target: Neu5Ac(a2-6)GalNAc
# Method in brief: as §1
# [18] = target: Neu5Ac(a2-6)GalNAc(b1-4)GlcNAc
# Method in brief: as §1
# Neu5Ac(a2-8)Neu5Ac = target: Neu5Ac(a2-8)Neu5Ac
# Method in brief: as §1
# [19] = target: Neu5Ac(a2-8)Neu5Ac(a2-3)Gal(b1-4)Glc
# Method in brief: as §1
# [20] = target: Neu5Ac(a2-8)Neu5Ac(a2-3)[GalNAc(b1-4)]Gal(b1-4)Glc
# Method in brief: as §1
# [21] = target: Neu5Ac(a2-8)Neu5Ac(a2-8)Neu5Ac
# Method in brief: as §1
# [22] = target: Neu5Ac(a2-8)Neu5Ac(a2-8)Neu5Ac(a2-3)Gal(b1-4)Glc
# Method in brief: as §1
# [23] = target: Neu5Ac(a2-8)Neu5Ac(a2-8)Neu5Ac(a2-3)[GalNAc(b1-4)]Gal(b1-4)Glc
# Method in brief: as §1
# [24] = target: Neu5Ac(a2-8)Neu5Ac(a2-8)Neu5Ac(a2-8)Neu5Ac(a2-3)[GalNAc(b1-4)]Gal(b1-4)Glc
# Method in brief: as §1
# [25] = target: Neu5Ac9Ac(a2-6)Gal(b1-4)GlcNAc
# Method in brief: as §1
# [26] = target: Neu5Gc(a2-3)Gal(b1-3)GlcNAc
# Method in brief: as §1
# [27] = target: Neu5Gc(a2-3)Gal(b1-3)[Fuc(a1-4)]GlcNAc
# Method in brief: as §1
# Neu5Gc(a2-3)Gal(b1-4)Glc = target: Neu5Gc(a2-3)Gal(b1-4)Glc
# Method in brief: as §1
# [28] = target: Neu5Gc(a2-3)Gal(b1-4)GlcNAc
# Method in brief: as §1
# [29] = target: Neu5Gc(a2-3)Gal(b1-4)[Fuc(a1-4)]GlcNAc
# Method in brief: as §1
# [30] = target: Neu5Gc(a2-6)Gal(b1-4)GlcNAc
# Method in brief: as §1
# Neu5Gc(a2-6)GalNAc = target: Neu5Gc(a2-6)GalNAc
# Method in brief: as §1
binder,measurement,setting,value
B1,glycan array binding signal (z-score),[1],0.04
same,glycan array binding signal (z-score),[2],-0.231
same,glycan array binding signal (z-score),[3],-0.244
same,glycan array binding signal (z-score),[4],0.252
same,glycan array binding signal (z-score),[5],-0.173
same,glycan array binding signal (z-score),[6],-0.175
same,glycan array binding signal (z-score),[7],-0.137
same,glycan array binding signal (z-score),[8],-0.204
same,glycan array binding signal (z-score),Neu5Ac(a2-3)GalNAc,-0.242
same,glycan array binding signal (z-score),[9],-0.257
same,glycan array binding signal (z-score),[10],-0.203
same,glycan array binding signal (z-score),[11],-0.181
same,glycan array binding signal (z-score),[12],-0.194
same,glycan array binding signal (z-score),[13],-0.219
same,glycan array binding signal (z-score),[14],-0.187
same,glycan array binding signal (z-score),[15],-0.247
same,glycan array binding signal (z-score),[16],-0.137
same,glycan array binding signal (z-score),[17],-0.232
same,glycan array binding signal (z-score),Neu5Ac(a2-6)GalNAc,-0.157
same,glycan array binding signal (z-score),[18],-0.172
same,glycan array binding signal (z-score),Neu5Ac(a2-8)Neu5Ac,-0.224
same,glycan array binding signal (z-score),[19],-0.222
same,glycan array binding signal (z-score),[20],-0.192
same,glycan array binding signal (z-score),[21],-0.251
same,glycan array binding signal (z-score),[22],-0.254
same,glycan array binding signal (z-score),[23],-0.126
same,glycan array binding signal (z-score),[24],-0.159
same,glycan array binding signal (z-score),[25],-0.11
same,glycan array binding signal (z-score),[26],-0.21
same,glycan array binding signal (z-score),[27],-0.243
same,glycan array binding signal (z-score),Neu5Gc(a2-3)Gal(b1-4)Glc,-0.148
same,glycan array binding signal (z-score),[28],-0.228
same,glycan array binding signal (z-score),[29],-0.225
same,glycan array binding signal (z-score),[30],-0.248
same,glycan array binding signal (z-score),Neu5Gc(a2-6)GalNAc,-0.243
